Measured values from the supplement of paper PMC8728848.
This is one part of the list.

Columns and labels:
[1] = target: Neu5Gc(a2-8)Neu5Gc(a2-6)Gal(b1-4)GlcNAc; experiment: glycan array binding signal (z-score within array); higher = stronger binding; conditions: glycan notation: IUPAC condensed, linker removed
Outline: (§1)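 Glycan array binding is given as a within-array Z-score, which can be read as non-binding when negative. The arrays, 3228 of them, came from the Consortium for Functional Glycomics database and were retained only where the protein sequence was available. Z-scores were averaged across arrays of the same protein sequence at different concentrations or buffers and across linkers.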

[2] = target: Neu5Gc(b2-6)Gal(b1-4)GlcNAc; experiment: as above; conditions: glycan notation: IUPAC condensed, linker removed
Outline: as §1

B1: a L Fucosidase (Streptosporangium roseum), D2B1P1_STRRD (protein)
chain: MRRKLLLVPAVGLLVIGSIFATQPVASADTPPVYEPTVESLNSHPVPQWFNDDKFGIFIHWGAYSVPAWGPRGSYAEWYGNYMNAGGSATNAHHKATYGQDFNYDAFLQQWKAEKFDPADWVKLFKDAGAKYFVLTSKHHEGMALWDSKSSGRDSVDLGPGRDLAKELFDAARKDEAKLKAGFYYSLYEWYNPAYTGRPATNPYTGAEIPYTGAPGGGDYVKDYMLPQMRELIDGYDPDIIWCDGQWEKPASYWNTAGVIADYYNKALNSGKEVAVANRCKIQSGNLDSPELDFQTPEYTVKPDIDPVKWESSRGIAHSYGYNQNEPEEDHLTSDQLVDSLVDIVSKNGNLLLDIGPKADGTIPEIQRQRLLDIGAWLKANGEAIYGTTYWNRAEEKGGPDDVRYTAKDATLYATALKWPGEQLTLGADLPVDHSTRITMLGSGARLSWSRDEQGRVVVNTPQEAGKHAYVFKIETPGVRSLLRTSSSLAKEIAPGRTISGELTVTNPGKRHTPATKLSLTVPQGWTATLGAPRVRPLGPGESVKVPISVSAPEGVAPAPYTLGLYQRTGRMGTTTALPLTVNRPNLSLGKPATQKSTGYDAPASRAVDGNTGGDWSAGSTTHTAEPEKQAWWQVDLGASARLDSVDVWNRLDCCADRLKDFWVMASDQPFTTDDLDQARTAPGVTAVHVGEQAGSPSKVKLPEGTRGRYVRIQLASPSNPLSLAEVQVRGSMARPNLSLGKPATQKSTGYDAPASRAVDGNTGGDWSAGSTTHTAEPEKQAWWQVDLGASARLDSVDVWNRLDCCADRLKDFWVMASDQPFTTDDLDQARTAPGVTAVHVGEQAGSPSKVKLPEGTRGRYVRIQLASPSNPLSLAEVQVRLEHHHHHHS
In the case of B1, the “glycan array binding signal (z-score)” value [1] is reported as -0.112 and the “glycan array binding signal (z-score)” value [2] is reported as -0.474.
